Some of the results follow.
Target: T1, MBP-FoxP1dN (Mus musculus, UniProt P58462 326-579)
T1 sequence: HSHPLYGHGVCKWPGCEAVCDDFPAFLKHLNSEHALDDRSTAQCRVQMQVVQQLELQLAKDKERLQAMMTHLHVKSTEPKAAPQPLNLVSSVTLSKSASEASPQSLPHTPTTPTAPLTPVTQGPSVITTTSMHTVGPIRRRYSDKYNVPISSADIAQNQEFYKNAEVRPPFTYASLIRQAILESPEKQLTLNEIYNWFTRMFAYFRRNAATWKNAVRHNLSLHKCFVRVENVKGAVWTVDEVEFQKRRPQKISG
Assay: PD-seq (MBP pull-down with sequencing); 20 mM Tris-HCl pH 7.5, 100 mM NaCl, 1.5 mM MgCl2, 0.4 uM protein, 0.1 uM dsDNA library, 30 min, room temperature, amylose pull-down; high values mean tight binding
Conditions: protein: recombinant; tags: His6-MBP; chain copies: 2; dsDNA, one strand shown
Outline: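 Protein and DNA were mixed at 0.4 µM and 0.1 µM and held for 30 min at room temperature in Tris pH 7.5 buffer with NaCl and MgCl2; the protein was a His6-MBP-tagged, N-terminally truncated mouse FoxP3 or FoxP1 fragment from E. coli, and the DNA a Klenow-filled double-stranded degenerate library. Amylose resin captured the complexes, which were washed three times. Binding is read as reads-per-million enrichment of pull-down versus input after Illumina sequencing, with replicates pooled.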

Row | Sequence | binding signal
1 | GATGATTGTTCTCCCAGCTGATGAATTCGATTTGTCGAGTAAACAAATTTTCCTAATCTTTCTGTTCAAGCGCCATCTAC | 1.07 RPM ratio (pull-down/input)
2 | GATGATTGTTCTCCCAGCTGATGAATTTCAGCGATCGAGTAAACAAATTTTCCTAATCTTTCTGTTCAAGCGCCATCTAC | 0.822 RPM ratio (pull-down/input)
3 | GATGATTGTTCTCCCAGCTGATGAATTGATATGATCGAGTAAACAAATTTTCCTAATCTTTCTGTTCAAGCGCCATCTAC | 1.1 RPM ratio (pull-down/input)
4 | GATGATTGTTCTCCCAGCTGATGAATTATCAGGCTCGAGTAAACAAATTTTCCTAATCTTTCTGTTCAAGCGCCATCTAC | 0.854 RPM ratio (pull-down/input)
5 | GATGATTGTTCTCCCAGCTGATGAATTGTAATCCTCGAGTAAACAAATTTTCCTAATCTTTCTGTTCAAGCGCCATCTAC | 0.988 RPM ratio (pull-down/input)
6 | GATGATTGTTCTCCCAGCTGATGAATTCCCAGTGTCGAGTAAACAAATTTTCCTAATCTTTCTGTTCAAGCGCCATCTAC | 0.817 RPM ratio (pull-down/input)
7 | GATGATTGTTCTCCCAGCTGATGAATTCGGTTAATCGAGTAAACAAATTTTCCTAATCTTTCTGTTCAAGCGCCATCTAC | 0.879 RPM ratio (pull-down/input)
8 | GATGATTGTTCTCCCAGCTGATGAATTGTGGTCATCGAGTAAACAAATTTTCCTAATCTTTCTGTTCAAGCGCCATCTAC | 1.18 RPM ratio (pull-down/input)
9 | GATGATTGTTCTCCCAGCTGATGAATTTACATCCTCGAGTAAACAAATTTTCCTAATCTTTCTGTTCAAGCGCCATCTAC | 1.26 RPM ratio (pull-down/input)
10 | GATGATTGTTCTCCCAGCTGATGAATTATAGTAGTCGAGTAAACAAATTTTCCTAATCTTTCTGTTCAAGCGCCATCTAC | 0.985 RPM ratio (pull-down/input)
11 | GATGATTGTTCTCCCAGCTGATGAATTGGATCAGTCGAGTAAACAAATTTTCCTAATCTTTCTGTTCAAGCGCCATCTAC | 0.801 RPM ratio (pull-down/input)
12 | GATGATTGTTCTCCCAGCTGATGAATTGGGCAACTCGAGTAAACAAATTTTCCTAATCTTTCTGTTCAAGCGCCATCTAC | 0.834 RPM ratio (pull-down/input)
13 | GATGATTGTTCTCCCAGCTGATGAATTGCATAGATCGAGTAAACAAATTTTCCTAATCTTTCTGTTCAAGCGCCATCTAC | 1.08 RPM ratio (pull-down/input)
14 | GATGATTGTTCTCCCAGCTGATGAATTCTCATGCTCGAGTAAACAAATTTTCCTAATCTTTCTGTTCAAGCGCCATCTAC | 0.856 RPM ratio (pull-down/input)
15 | GATGATTGTTCTCCCAGCTGATGAATTGCGTCTGTCGAGTAAACAAATTTTCCTAATCTTTCTGTTCAAGCGCCATCTAC | 1.03 RPM ratio (pull-down/input)
16 | GATGATTGTTCTCCCAGCTGATGAATTAGCATTGTCGAGTAAACAAATTTTCCTAATCTTTCTGTTCAAGCGCCATCTAC | 1.29 RPM ratio (pull-down/input)

Row | Sequence | binding signal
17 | GATGATTGTTCTCCCAGCTGATGAATTCCAGACCTCGAGTAAACAAATTTTCCTAATCTTTCTGTTCAAGCGCCATCTAC | 0.724 RPM ratio (pull-down/input)
18 | GATGATTGTTCTCCCAGCTGATGAATTTGTCGAGTCGAGTAAACAAATTTTCCTAATCTTTCTGTTCAAGCGCCATCTAC | 0.987 RPM ratio (pull-down/input)
19 | GATGATTGTTCTCCCAGCTGATGAATTGATTGGTTCGAGTAAACAAATTTTCCTAATCTTTCTGTTCAAGCGCCATCTAC | 1.1 RPM ratio (pull-down/input)
20 | GATGATTGTTCTCCCAGCTGATGAATTCGTGTAATCGAGTAAACAAATTTTCCTAATCTTTCTGTTCAAGCGCCATCTAC | 1.43 RPM ratio (pull-down/input)
21 | GATGATTGTTCTCCCAGCTGATGAATTTAGGAATTCGAGTAAACAAATTTTCCTAATCTTTCTGTTCAAGCGCCATCTAC | 0.973 RPM ratio (pull-down/input)
22 | GATGATTGTTCTCCCAGCTGATGAATTGTCTCACTCGAGTAAACAAATTTTCCTAATCTTTCTGTTCAAGCGCCATCTAC | 0.978 RPM ratio (pull-down/input)
23 | GATGATTGTTCTCCCAGCTGATGAATTGGGTTTATCGAGTAAACAAATTTTCCTAATCTTTCTGTTCAAGCGCCATCTAC | 1.14 RPM ratio (pull-down/input)
24 | GATGATTGTTCTCCCAGCTGATGAATTCCCTTCTTCGAGTAAACAAATTTTCCTAATCTTTCTGTTCAAGCGCCATCTAC | 0.876 RPM ratio (pull-down/input)
25 | GATGATTGTTCTCCCAGCTGATGAATTGTTCGAGTCGAGTAAACAAATTTTCCTAATCTTTCTGTTCAAGCGCCATCTAC | 1.05 RPM ratio (pull-down/input)
26 | GATGATTGTTCTCCCAGCTGATGAATTGGTTCGATCGAGTAAACAAATTTTCCTAATCTTTCTGTTCAAGCGCCATCTAC | 0.883 RPM ratio (pull-down/input)
27 | GATGATTGTTCTCCCAGCTGATGAATTGGCTGTTTCGAGTAAACAAATTTTCCTAATCTTTCTGTTCAAGCGCCATCTAC | 0.946 RPM ratio (pull-down/input)
28 | GATGATTGTTCTCCCAGCTGATGAATTAGAGACATCGAGTAAACAAATTTTCCTAATCTTTCTGTTCAAGCGCCATCTAC | 1.04 RPM ratio (pull-down/input)
29 | GATGATTGTTCTCCCAGCTGATGAATTCCAAACTTCGAGTAAACAAATTTTCCTAATCTTTCTGTTCAAGCGCCATCTAC | 0.809 RPM ratio (pull-down/input)
30 | GATGATTGTTCTCCCAGCTGATGAATTTGCGAGCTCGAGTAAACAAATTTTCCTAATCTTTCTGTTCAAGCGCCATCTAC | 0.907 RPM ratio (pull-down/input)
31 | GATGATTGTTCTCCCAGCTGATGAATTCAAAGAGTCGAGTAAACAAATTTTCCTAATCTTTCTGTTCAAGCGCCATCTAC | 0.821 RPM ratio (pull-down/input)
32 | GATGATTGTTCTCCCAGCTGATGAATTGCACGAGTCGAGTAAACAAATTTTCCTAATCTTTCTGTTCAAGCGCCATCTAC | 0.968 RPM ratio (pull-down/input)

Reference: publication PMC12820563, “FoxP3 forms a head-to-head dimer in vivo and stabilizes its multimerization on adjacent microsatellites”
